The other results are listed elsewhere or left out. The data describe in vitro nicking of single-stranded DNA by Rep domains for 1 h at 37 °C with 3 µM enzyme; only the middle of the 90-letter strands is printed. Numbers give uncut DNA relative to the enzyme-free pool, as log2; more negative means more cut, near 0 not cut, and no call is made. Reads are scaled to the total; uncut strands gain when others are lost, and binding without cutting may add a little.
Legend:
Assay in all cases: uncleaved DNA left, log2 of reads against the no-enzyme library (log2 ratio); higher = less cleavage (more negative = more Rep cleavage of the k-mer); sequences stand for … in CTCGTCCG…ACCGGAGA
[1] = tested on: T1, Rep nickase domain of Muscovy duck circovirus
T1 sequence (residues 1-111 of Rep, tag left off): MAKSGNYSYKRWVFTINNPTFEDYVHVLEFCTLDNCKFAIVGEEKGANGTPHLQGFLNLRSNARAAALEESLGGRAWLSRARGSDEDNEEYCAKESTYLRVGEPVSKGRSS
Description: (§1)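 A pool of 90-nt single-stranded DNAs with seven random bases just before the constant AC of the nick site (name = the seven bases) was cut by 3 µM recombinant His6-SUMO-tagged Rep nickase domain (300 nM DNA, 50 mM HEPES pH 8.0, 50 mM NaCl, 1 mM MnCl2, 1 h, 37 °C, three replicates). Uncut DNA was amplified and sequenced.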

[2] = tested on: T2, Rep nickase domain of banana bunchy top virus
T2 sequence (residues 1-94 of Rep, tag left off): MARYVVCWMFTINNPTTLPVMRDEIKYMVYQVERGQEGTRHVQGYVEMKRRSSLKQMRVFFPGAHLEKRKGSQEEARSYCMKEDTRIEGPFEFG
Description: as §1

[3] = tested on: T3, Rep nickase domain of cabbage leaf curl virus
T3 sequence (residues 1-116 of Rep, tag left off): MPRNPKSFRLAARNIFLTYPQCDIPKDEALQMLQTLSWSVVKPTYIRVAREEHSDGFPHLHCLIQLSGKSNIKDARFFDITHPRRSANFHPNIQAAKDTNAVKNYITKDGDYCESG
Description: as §1

[4] = tested on: T4, Rep nickase domain of chickpea chlorotic dwarf virus
T4 sequence (residues 1-124 of Rep, tag left off): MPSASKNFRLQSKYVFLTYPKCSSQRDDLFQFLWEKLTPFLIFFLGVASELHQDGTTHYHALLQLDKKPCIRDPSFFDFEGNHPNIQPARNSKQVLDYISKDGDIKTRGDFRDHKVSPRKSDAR
Description: as §1

[5] = tested on: T5, Rep nickase domain of faba bean necrotic yellows virus
T5 sequence (residues 1-98 of Rep, tag left off): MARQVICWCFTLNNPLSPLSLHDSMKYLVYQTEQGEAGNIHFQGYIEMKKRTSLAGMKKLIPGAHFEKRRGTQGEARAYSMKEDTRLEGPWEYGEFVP
Description: as §1

[6] = tested on: T6, Rep nickase domain of maize striate mosaic virus
T6 sequence (residues 1-117 of Rep, tag left off): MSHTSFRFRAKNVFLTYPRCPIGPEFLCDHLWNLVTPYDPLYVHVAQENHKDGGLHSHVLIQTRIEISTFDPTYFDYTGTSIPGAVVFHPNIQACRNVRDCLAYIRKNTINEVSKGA
Description: as §1

[7] = tested on: T7, Rep nickase domain of porcine circovirus 2
T7 sequence (residues 2-116 of Rep, tag left off): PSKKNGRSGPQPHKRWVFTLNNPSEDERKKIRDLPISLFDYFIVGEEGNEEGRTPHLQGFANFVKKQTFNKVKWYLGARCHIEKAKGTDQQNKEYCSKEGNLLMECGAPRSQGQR
Description: as §1

[8] = tested on: T8, Rep nickase domain of tomato golden mosaic virus
T8 sequence (residues 1-124 of Rep, tag left off): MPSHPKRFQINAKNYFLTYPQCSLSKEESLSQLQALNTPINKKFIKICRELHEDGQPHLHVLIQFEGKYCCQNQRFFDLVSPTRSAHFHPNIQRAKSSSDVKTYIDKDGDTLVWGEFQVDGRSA
Description: as §1

[9] = tested on: T9, Rep nickase domain of tomato yellow leaf curl virus
T9 sequence (residues 1-136 of Rep, tag left off): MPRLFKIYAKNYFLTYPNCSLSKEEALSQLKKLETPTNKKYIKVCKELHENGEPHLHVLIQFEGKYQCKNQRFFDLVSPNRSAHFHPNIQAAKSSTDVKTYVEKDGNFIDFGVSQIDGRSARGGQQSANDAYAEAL
Description: as §1

[10] = tested on: T10, Rep nickase domain of wheat dwarf virus
T10 sequence (residues 1-137 of Rep, tag left off): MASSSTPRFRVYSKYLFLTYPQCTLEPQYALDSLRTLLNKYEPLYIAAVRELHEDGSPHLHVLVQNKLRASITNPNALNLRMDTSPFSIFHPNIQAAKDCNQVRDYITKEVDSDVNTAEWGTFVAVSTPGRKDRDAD
Description: as §1

Row | Sequence | uncleaved DNA left (log2) [1] | uncleaved DNA left (log2) [2] | uncleaved DNA left (log2) [3] | uncleaved DNA left (log2) [4] | uncleaved DNA left (log2) [5] | uncleaved DNA left (log2) [6] | uncleaved DNA left (log2) [7] | uncleaved DNA left (log2) [8] | uncleaved DNA left (log2) [9] | uncleaved DNA left (log2) [10]
1 | AACGAGA | 0.00473 | 0.0461 | 0.68 | 1.18 | 0.101 | 1.01 | 0.0279 | 0.0808 | -0.0858 | 0.111
2 | GTAGAAC | -0.00733 | 0.023 | 0.388 | 0.831 | 0.000936 | 1.58 | 0.0102 | 0.00168 | -0.0383 | 0.162
3 | TGCGATA | 0.0841 | -0.0872 | -0.144 | -0.317 | 0.02 | -0.425 | 0.0133 | 0.102 | 0.0295 | -0.0348
4 | ACGGGGC | 0.0128 | -0.0842 | 0.518 | 0.759 | -0.115 | 0.957 | 0.0944 | -0.00584 | -0.157 | -0.0158
5 | AAGTCAT | 0.0474 | -0.00244 | 0.19 | 0.516 | -0.118 | 1.26 | -3.75 | 0.0329 | 0.0173 | 0.149
6 | CCCCGTG | 0.0439 | 0.0431 | -0.752 | -0.576 | 0.0197 | -0.869 | -0.0587 | -0.0253 | -0.0216 | -0.158
7 | TAAATGT | 0.00623 | -0.101 | -3.76 | -3.08 | 0.149 | -2.32 | -0.473 | -2.42 | -0.0139 | -3.59
8 | CCATTAT | -0.473 | 0.114 | -0.103 | -0.949 | -0.0308 | -0.986 | -0.86 | 0.0584 | -0.00494 | -0.1
9 | CCGATCG | -0.0813 | -0.11 | -0.827 | -0.152 | 0.0163 | -0.877 | 0.123 | -0.188 | -0.144 | -0.105
10 | ACTCGCA | -0.0953 | 0.0342 | -0.535 | -0.956 | 0.0444 | -1.11 | -0.0101 | 0.023 | 0.0438 | -0.0689
11 | ACACTCG | 0.0548 | 0.0529 | -0.261 | 0.661 | 0.0228 | -0.267 | 0.29 | 0.0663 | 0.00758 | 0.0823
12 | CTTCGTG | 0.0484 | 0.0108 | -0.726 | -0.703 | -0.00336 | -1.19 | 0.0818 | -0.0456 | 0.00362 | 0.0122
13 | AAGTCAG | 0.0488 | 0.0636 | -0.516 | -0.692 | 0.028 | -1.08 | -0.0547 | 0.146 | 0.0249 | 0.0198
14 | CGCAGAT | 0.0825 | 0.0329 | 0.37 | 0.687 | 0.0613 | 0.951 | 0.136 | 0.0718 | -0.169 | 0.125
15 | CACAGAG | 0.019 | -0.0359 | -0.733 | -0.486 | -0.027 | -1.14 | 0.0814 | -0.0901 | -0.0728 | -0.081
16 | AGCCACT | 0.0166 | -0.0419 | 0.0434 | -0.0101 | 0.0723 | 1.24 | -0.0414 | 0.0349 | -0.0262 | 0.0774

Row | Sequence | uncleaved DNA left (log2) [1] | uncleaved DNA left (log2) [2] | uncleaved DNA left (log2) [3] | uncleaved DNA left (log2) [4] | uncleaved DNA left (log2) [5] | uncleaved DNA left (log2) [6] | uncleaved DNA left (log2) [7] | uncleaved DNA left (log2) [8] | uncleaved DNA left (log2) [9] | uncleaved DNA left (log2) [10]
17 | GCGTGAC | 0.0966 | 0.166 | 0.526 | 1.38 | -0.00681 | 1.7 | 0.141 | 0.0328 | -0.0394 | 0.074
18 | GAGGAGG | 0.105 | 0.128 | 0.49 | 0.985 | 0.0082 | 0.872 | 0.194 | 0.124 | 0.102 | 0.129
19 | TACAGAC | 0.0735 | 0.126 | 0.065 | -0.115 | 0.122 | -0.242 | 0.222 | -0.0365 | 0.0502 | 0.156
20 | CTTGTCT | 0.0628 | 0.11 | -0.272 | -1.68 | 0.108 | -0.796 | -0.269 | 0.0136 | 0.152 | -0.0303
21 | ACTTGTA | 0.00247 | -0.0106 | -0.358 | -1.08 | 0.0457 | -0.939 | -0.387 | 0.029 | 0.035 | -0.0576
22 | AGACGAC | 0.187 | 0.193 | 0.228 | 0.732 | 0.186 | 1.1 | 0.192 | 0.121 | 0.0637 | 0.135
23 | CGGTGAA | -0.0514 | -0.0594 | 0.125 | 0.617 | -0.0544 | 1.09 | -0.0174 | -0.0135 | -0.134 | -0.0791
24 | AGTAATA | 0.0656 | -0.0862 | -0.05 | -0.748 | -0.0321 | -0.0203 | -0.762 | 0.0367 | 0.0712 | 0.0712
25 | GCGTCCC | -0.133 | -0.0578 | 0.128 | 0.285 | -0.0542 | 0.405 | -0.214 | -0.121 | -0.0693 | -0.109
26 | GACGGAC | -0.0156 | 0.00823 | 0.619 | 1.71 | -0.181 | 1.97 | 0.177 | 0.107 | -0.0718 | 0.0488
27 | CTGCGGC | -0.199 | -0.166 | -0.532 | -0.686 | -0.00458 | -0.975 | 0.0352 | -0.257 | -0.162 | -0.244
28 | AGGTCAC | 0.116 | 0.119 | 0.298 | 0.381 | -0.00741 | 0.445 | 0.114 | 0.0564 | 0.163 | 0.211
29 | GCCGTGG | 0.239 | 0.0852 | 0.259 | 0.845 | 0.0466 | 0.405 | 0.339 | 0.258 | 0.127 | 0.101
30 | GCTTTCC | -0.0295 | -0.0474 | 0.197 | 0.429 | -0.125 | 0.367 | 0.0182 | -0.0983 | -0.0691 | 0.00321
31 | CCCTTTG | 0.0253 | -0.00577 | -0.538 | -0.733 | -0.106 | -1.08 | 0.0581 | 0.0291 | 0.0967 | -0.174
